The values below come from publication doi:10.1101/2025.05.13.653815, “Roles of the MO25 protein Pmo25 in contractile-ring stability and localization of the NDR kinase Sid2 during cytokinesis” (bioRxiv, 2025).

Protein sequences, listed by entry. Tags and fused reporters are not part of them.
UniProt Q09196: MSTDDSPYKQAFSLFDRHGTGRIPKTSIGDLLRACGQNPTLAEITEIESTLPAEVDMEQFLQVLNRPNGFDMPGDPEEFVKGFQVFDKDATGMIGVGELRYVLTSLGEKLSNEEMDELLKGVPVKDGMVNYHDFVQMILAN

Assay [1] deals with T1, Pmo25-mECitrine (S. pombe) (UniProt Q9P7Q8).
T1 sequence: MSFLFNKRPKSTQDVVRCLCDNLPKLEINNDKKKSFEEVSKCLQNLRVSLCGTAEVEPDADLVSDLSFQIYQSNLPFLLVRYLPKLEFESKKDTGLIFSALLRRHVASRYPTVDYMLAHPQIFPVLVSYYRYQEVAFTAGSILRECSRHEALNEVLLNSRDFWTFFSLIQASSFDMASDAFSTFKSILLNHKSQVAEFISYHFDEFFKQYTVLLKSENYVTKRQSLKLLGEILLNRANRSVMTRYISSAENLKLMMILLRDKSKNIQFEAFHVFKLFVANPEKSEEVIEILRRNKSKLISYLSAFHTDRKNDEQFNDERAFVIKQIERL
Nature of the assay: co-IP; S. pombe cell extracts, IP buffer with 150 mM NaCl and 0.5% NP-40, pH 7.5, 4°C; anti-GFP polyclonal antibody on protein G Dynabeads; blots with anti-Myc and anti-GFP.

Assay [2] deals with BD-Cdc4 (full length Cdc4 in pGBT9) (S. pombe) (UniProt Q09196). The assay can be described thus: two-hybrid; AD-Pmo25 (pVP16) and BD-Cdc4 (pGBT9) co-transformed into S. cerevisiae MaV203; LacZ as a reporter.
The next assay has as its target mYFP-Cdc4 (S. pombe) (UniProt Q09196). The assay can be described thus: co-IP; S. pombe cell extracts, IP buffer with 150 mM NaCl and 0.5% NP-40, pH 7.5, 4°C; anti-GFP polyclonal antibody on protein G Dynabeads; blots with anti-Myc and anti-GFP.
The target of assay [3] is T2, MBP-Ync13-(591-1130)-6His (S. pombe, UniProt O13683 591-1130).
T2 construct: The cloning of this truncation is not described; not shown: MBP, N-terminal, kept; His6, C-terminal, kept
T2 sequence (looked up): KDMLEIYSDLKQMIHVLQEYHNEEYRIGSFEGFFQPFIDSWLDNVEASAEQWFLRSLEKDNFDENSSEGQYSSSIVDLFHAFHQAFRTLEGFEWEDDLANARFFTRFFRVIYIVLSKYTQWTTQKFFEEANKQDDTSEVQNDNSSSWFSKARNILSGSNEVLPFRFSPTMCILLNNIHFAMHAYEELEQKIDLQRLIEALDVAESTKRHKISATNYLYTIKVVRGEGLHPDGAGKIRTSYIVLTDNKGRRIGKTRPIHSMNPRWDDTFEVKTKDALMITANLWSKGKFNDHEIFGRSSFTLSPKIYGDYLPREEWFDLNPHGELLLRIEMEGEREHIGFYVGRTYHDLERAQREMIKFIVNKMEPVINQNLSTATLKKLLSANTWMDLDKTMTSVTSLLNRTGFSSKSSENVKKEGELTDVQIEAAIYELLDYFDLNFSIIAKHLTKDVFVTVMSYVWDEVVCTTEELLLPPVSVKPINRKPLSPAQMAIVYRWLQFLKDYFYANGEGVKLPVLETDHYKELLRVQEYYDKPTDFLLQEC
Nature of the assay: pull-down; MBP-Ync13 proteins held on amylose beads, Pmo25-6His proteins added for 1 h at 4°C in binding buffer (137 mM NaCl, pH 7.4, 0.5 mM DTT, 10% glycerol); SDS-PAGE, Coomassie Blue; both purified.

Assay [4] has as its target T3, BD-Ync13 NH2-terminus (1-590 aa) (S. pombe) (UniProt O13683).
T3 sequence: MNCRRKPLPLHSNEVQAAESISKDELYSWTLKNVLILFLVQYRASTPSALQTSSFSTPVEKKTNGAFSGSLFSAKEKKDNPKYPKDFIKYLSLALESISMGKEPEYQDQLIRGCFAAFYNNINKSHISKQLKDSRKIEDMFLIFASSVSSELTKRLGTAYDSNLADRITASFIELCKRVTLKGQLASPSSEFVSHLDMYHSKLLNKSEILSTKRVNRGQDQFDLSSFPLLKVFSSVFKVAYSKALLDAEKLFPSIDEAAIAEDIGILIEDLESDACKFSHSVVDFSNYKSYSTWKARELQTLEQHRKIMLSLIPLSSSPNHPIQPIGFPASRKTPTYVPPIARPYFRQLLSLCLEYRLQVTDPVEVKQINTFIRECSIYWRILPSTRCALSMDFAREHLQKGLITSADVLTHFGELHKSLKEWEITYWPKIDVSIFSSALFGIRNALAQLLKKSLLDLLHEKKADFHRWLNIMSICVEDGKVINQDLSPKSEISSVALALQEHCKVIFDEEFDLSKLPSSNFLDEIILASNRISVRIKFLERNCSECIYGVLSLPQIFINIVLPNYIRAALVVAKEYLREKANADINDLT
The assay can be described thus: two-hybrid; screen and assay: BD-Ync13 fragments (pGBT9) as baits, pACT2 prey library, S. cerevisiae MaV203; quadruple dropout medium with 3AT and LacZ coloration.

Assay [5] concerns the target T4, BD-Ync13 COOH-terminus (591-1237 aa) (S. pombe) (UniProt O13683).
T4 sequence: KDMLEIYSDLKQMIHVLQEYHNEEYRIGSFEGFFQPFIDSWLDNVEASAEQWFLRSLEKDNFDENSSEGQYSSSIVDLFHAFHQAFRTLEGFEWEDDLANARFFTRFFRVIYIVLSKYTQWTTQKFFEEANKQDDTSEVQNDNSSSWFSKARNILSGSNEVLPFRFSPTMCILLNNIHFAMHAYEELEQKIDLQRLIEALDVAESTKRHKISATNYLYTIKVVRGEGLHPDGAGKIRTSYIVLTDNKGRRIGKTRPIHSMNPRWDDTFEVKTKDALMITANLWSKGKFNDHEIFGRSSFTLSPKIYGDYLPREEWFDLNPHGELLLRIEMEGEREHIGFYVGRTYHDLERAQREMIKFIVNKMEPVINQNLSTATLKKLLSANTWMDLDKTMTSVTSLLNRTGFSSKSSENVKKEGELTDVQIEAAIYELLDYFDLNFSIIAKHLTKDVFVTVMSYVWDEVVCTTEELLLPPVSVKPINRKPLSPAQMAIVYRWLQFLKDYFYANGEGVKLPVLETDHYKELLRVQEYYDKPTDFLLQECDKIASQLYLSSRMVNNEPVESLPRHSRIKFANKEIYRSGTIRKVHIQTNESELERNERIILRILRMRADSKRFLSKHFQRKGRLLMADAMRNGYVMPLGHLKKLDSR
The assay is described as above.

Results are given in words; binding and its absence hold for the method and conditions named. For part of these data: In cells and extracts the contact can be indirect. Some entries that bind do so weakly or less than the wild type. Tags and fused reporters may be left off the sequences shown.

B1: Sid2-13Myc (enzyme, UniProt Q09898 1-607)
chain: MNRVNDMSPVEGDLGLQLSSEADKKFDAYMKRHGLFEPGNLSNNDKERNLEDQFNSMKLSPVASSKENYPDNHMHSKHISKLPIASPIPRGLDRSGELSYKDNNHWSDRSSTGSPRWENGSMNLSVEEMEKVVQPKVKRMATICQMFFLDHYFEQLHYLYTRKQRARLFEEQLLKEPDSRRDELVKRYNGRERVYLRKRRTRISHGDFQTITQVGQGGYGSVWLARKRDTKEIVALKIMNKSVLHKMDEIRHVLTERDILTTANSEWLVRLLYAFQDTSNIYLAMEFVPGGDFRTLLSNSGVLRDHHAKFYATEMFLAIDALHQLGYIHRDLKPENFLVGASGHIKLTDFGLSSGIISKKKIESMKIRLQEVNNVVVPERSMRERRQVFRTLLSQDPVYAHSVVGSPDYMAPEVLRGENYNHSVDYWSLGCIMYECLSGFPPFSGSNVNETWSNLKNWRKCFQRPHYDDPRDLEFNWRDDAWDFVCHCITDPKDRFCSLKQVMQHPYFSKIDWKNVRTAYRPPFVPDLNSEIDAGYFDDFTNENDMSKYKEVHEKQAAIANMVNTFNKPKRNAFIGFTFRHQKNSHPTSSSSALSSPLSAPSFGTLL
As for B1, the binding result in assay [1] is reported as “binds”.

B2: AD-Pmo25 (full length Pmo25 in the VP16 transcription activation domain vector pVP16) (protein, UniProt Q9P7Q8 1-329)
chain: MSFLFNKRPKSTQDVVRCLCDNLPKLEINNDKKKSFEEVSKCLQNLRVSLCGTAEVEPDADLVSDLSFQIYQSNLPFLLVRYLPKLEFESKKDTGLIFSALLRRHVASRYPTVDYMLAHPQIFPVLVSYYRYQEVAFTAGSILRECSRHEALNEVLLNSRDFWTFFSLIQASSFDMASDAFSTFKSILLNHKSQVAEFISYHFDEFFKQYTVLLKSENYVTKRQSLKLLGEILLNRANRSVMTRYISSAENLKLMMILLRDKSKNIQFEAFHVFKLFVANPEKSEEVIEILRRNKSKLISYLSAFHTDRKNDEQFNDERAFVIKQIERL
With B2, the binding result in assay [2] is “binds weakly”.

B3: Pmo25-13Myc (protein, UniProt Q9P7Q8 1-329)
chain: MSFLFNKRPKSTQDVVRCLCDNLPKLEINNDKKKSFEEVSKCLQNLRVSLCGTAEVEPDADLVSDLSFQIYQSNLPFLLVRYLPKLEFESKKDTGLIFSALLRRHVASRYPTVDYMLAHPQIFPVLVSYYRYQEVAFTAGSILRECSRHEALNEVLLNSRDFWTFFSLIQASSFDMASDAFSTFKSILLNHKSQVAEFISYHFDEFFKQYTVLLKSENYVTKRQSLKLLGEILLNRANRSVMTRYISSAENLKLMMILLRDKSKNIQFEAFHVFKLFVANPEKSEEVIEILRRNKSKLISYLSAFHTDRKNDEQFNDERAFVIKQIERL
With B3, the binding entry with mYFP-Cdc4 (S. pombe) was “binds”.

B4: Pmo25-full length-6His (protein, UniProt Q9P7Q8 1-329)
chain: MSFLFNKRPKSTQDVVRCLCDNLPKLEINNDKKKSFEEVSKCLQNLRVSLCGTAEVEPDADLVSDLSFQIYQSNLPFLLVRYLPKLEFESKKDTGLIFSALLRRHVASRYPTVDYMLAHPQIFPVLVSYYRYQEVAFTAGSILRECSRHEALNEVLLNSRDFWTFFSLIQASSFDMASDAFSTFKSILLNHKSQVAEFISYHFDEFFKQYTVLLKSENYVTKRQSLKLLGEILLNRANRSVMTRYISSAENLKLMMILLRDKSKNIQFEAFHVFKLFVANPEKSEEVIEILRRNKSKLISYLSAFHTDRKNDEQFNDERAFVIKQIERL
Take B4: in assay [3], the binding entry was “no binding”.

B5: Pmo25-(19-329)-6His (domain or fragment, S. pombe, UniProt Q9P7Q8 19-329, looked up)
chain: LCDNLPKLEINNDKKKSFEEVSKCLQNLRVSLCGTAEVEPDADLVSDLSFQIYQSNLPFLLVRYLPKLEFESKKDTGLIFSALLRRHVASRYPTVDYMLAHPQIFPVLVSYYRYQEVAFTAGSILRECSRHEALNEVLLNSRDFWTFFSLIQASSFDMASDAFSTFKSILLNHKSQVAEFISYHFDEFFKQYTVLLKSENYVTKRQSLKLLGEILLNRANRSVMTRYISSAENLKLMMILLRDKSKNIQFEAFHVFKLFVANPEKSEEVIEILRRNKSKLISYLSAFHTDRKNDEQFNDERAFVIKQIERL
notes: pET21a, between the N-terminal T7 tag and the C-terminal 6xHis tag; not shown: His6, C-terminal, kept
For the molecule B5, the binding entry in assay [4] is “no binding”; in assay [5], “binds”.
